Results from US20220127332A1.

Biological target: active TGFβ3 (UniProt P10600)
Assay: blocking of active TGFβ3 (1 ng/mL) in solution, 30 min in PBS; free TGFβ3 by ELISA

Chain of UniProt P10600 (P10600 301-412): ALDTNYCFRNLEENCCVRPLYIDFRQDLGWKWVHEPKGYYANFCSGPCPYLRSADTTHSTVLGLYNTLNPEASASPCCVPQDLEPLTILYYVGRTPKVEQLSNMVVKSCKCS

IC50: 0.07 nM
B1: bFISTv3 (bivalent FIST; fusion of an IL-2 polypeptide, a first sTBRII receptor polypeptide and a second sTBRII receptor polypeptide) (protein)
chain: [omitted - about 150 residues]KSDVEMEAQKGEMICVTCNRTAHPLKHVNNDMIVTDNNGAVKLPQLCKFCDVRFSTCDNQKSCMSNCSITSICEKPQEVCVAVWRKNDENITLETVCHDPKLTYHGFTLEDAASPKCVMKEKKKPGETFFMCSCSSDECNDNIIFIPPHVQKSVNNDMIVTDNNGAVKLPQLCKFCDVRFSTCDNQKSCMSNCSITSICEKPHEVCVAVWRKNDENITLETVCHDPKLTYHGFTLEDAASPKCVMKEKKKPGETFFMCSCSADECNDNIIFSEDYNTSNPD
